Reference: the supplement of paper PMC4166925
± gives the standard deviation of the averaged measurements. In all, about 33,000 sequences were measured (“E-score (dimensionless, -0.5 to 0.5)”: median about -0.049, highest 2% from about 0.37 on). This is one part of the list.

system: T1, PmTbr T-box DNA-binding domain (GST fusion); assay: PBM E-score of 8-mer (E-score (dimensionless, -0.5 to 0.5)); Tbr is Tbrain of the sea star Patiria miniata (Pm) or the sea urchin Strongylocentrotus purpuratus (Sp); higher = stronger binding preference; most listed sequences are background and not binding sites; conditions: the construct has about 5 more residues each side
T1 sequence: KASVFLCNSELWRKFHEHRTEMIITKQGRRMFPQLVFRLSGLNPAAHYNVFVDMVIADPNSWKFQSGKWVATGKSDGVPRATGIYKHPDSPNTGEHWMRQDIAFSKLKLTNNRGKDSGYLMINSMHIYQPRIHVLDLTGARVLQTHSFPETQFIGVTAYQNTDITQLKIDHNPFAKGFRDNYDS
Summary of the method: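 Primer extension turned Universal Agilent oligonucleotide arrays double-stranded. They were incubated with 200 nM protein in PBS (pH 7.5); the protein was a GST-fused Tbr T-box DNA-binding domain expressed in BL21 E. coli at 20 °C and purified on glutathione. Every ungapped 8-mer was scored from the scanned, quantified probe intensities, and the Universal PBM Analysis Suite gave each an enrichment E-score averaged over duplicate arrays.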

| Sequence | PBM E-score of 8-mer |
| --- | --- |
| TCAAGCAA | -0.14 ± 0.071 |
| AGCCGACG | -0.0152 ± 0.035 |
| AAGCGATT | -0.21 ± 0.091 |
| CCATAGTC | -0.0666 ± 0.086 |
| GAATGGTC | -0.149 ± 0.0021 |
| ACAATGGT | -0.00549 ± 0.02 |
| ACCTGTAC | -0.144 ± 0.0071 |
| AACCCCAA | -0.0877 ± 0.0096 |
| ATTCCAGG | -0.137 ± 0.038 |
| AGACCTCG | -0.2 ± 0.063 |
| CCCGTCCA | -0.24 ± 0.003 |
| GATAAGTA | 0.00155 ± 0.023 |
| GATCCGCA | -0.00764 ± 0.031 |
| CCCGCATC | -0.127 ± 0.013 |
| CCTGACAA | 0.207 ± 0.027 |
| CGAACGAC | 0.14 ± 0.0089 |
| CCAGGGTC | -0.00602 ± 0.0065 |
| TACGGCAA | -0.115 ± 0.016 |
| AGGCTGTC | 0.0531 ± 0.041 |
| CATGCGGG | -0.157 ± 0.015 |
| CAAGCGTC | 0.114 ± 0.014 |
| AGGCGGGA | 0.0518 ± 0.087 |
| ATGGCTAC | -0.222 ± 0.017 |
| GAGACATC | -0.188 ± 0.076 |
| GACTACTA | -0.18 ± 0.041 |

| Sequence | PBM E-score of 8-mer |
| --- | --- |
| CTATAAGC | -0.0168 ± 0.053 |
| AAGAAAAT | 0.0406 ± 0.15 |
| CAGGTACG | -0.0533 ± 0.12 |
| CGCAATCA | 0.136 ± 0.0055 |
| GCTGCGTA | -0.0658 ± 0.0014 |
| GCGCGGAA | 0.109 ± 0.0046 |
| CAGGTGTA | 0.3628 ± 0.0011 |
| GTCCAATA | -0.21 ± 0.0092 |
| GAAGGGCC | -0.286 ± 0.023 |
| GAGACGCA | -0.229 ± 0.031 |
| CAGTGAAC | -0.0221 ± 0.0075 |
| GTAACCAA | -0.0232 ± 0.059 |
| ACTTTCAA | -0.0407 ± 0.011 |
| GATAAGAC | -0.129 ± 0.037 |
| GACGTAAA | -0.0969 ± 0.059 |
| GCCTGCGC | -0.115 ± 0.052 |
| ACACCGGA | 0.0969 ± 0.082 |
| CGGTGGAC | -0.204 ± 0.011 |
| GATGTGAC | 0.308 ± 0.017 |
| CACTCGAG | 0.04 ± 0.028 |
| GATCGATC | -0.186 ± 0.047 |
| CCTCCTCC | -0.142 ± 0.012 |
| GACATGGA | -0.0649 ± 0.032 |
| CCTGGAGA | -0.0143 ± 0.012 |
| CAACTACA | 0.216 ± 0.015 |

| Sequence | PBM E-score of 8-mer |
| --- | --- |
| CCCTGGGA | -0.131 ± 0.0026 |
| ATGTACCA | -0.237 ± 0.036 |
| GCCAGCCA | -0.0543 ± 0.036 |
| TAATGTAA | -0.27 ± 0.024 |
| AGCAGCCA | -0.0759 ± 0.044 |
| AGAAACCC | -2e-05 ± 0.0016 |
| CCCTGAAG | -0.169 ± 0.038 |
| GACTTGAA | -0.206 ± 0.0084 |
| AGAAAGCC | -0.195 ± 0.021 |
| CTCTCCTC | -0.252 ± 0.049 |
| ACCCGCGG | 0.095 ± 0.14 |
| CGTTCTAC | -0.0889 ± 0.0094 |
| GCTTACAA | -0.163 ± 0.027 |
| AGCCTCGA | -0.134 ± 0.031 |
| AAAGGGAT | -0.335 ± 0.045 |
| AGTCACCG | -0.0939 ± 0.065 |
| CAAGAAAA | -0.12 ± 0.099 |
| TACCCGCA | -0.0772 ± 0.0093 |
| CAATGGAG | -0.113 ± 0.019 |
| CTCGGGCA | -0.136 ± 0.062 |
| CTTAGTGA | 0.164 ± 0.013 |
| AGACCATA | -0.187 ± 0.018 |
| CGAGCCGA | -0.175 ± 0.045 |
| ATGACTCC | -0.2667 ± 0.0017 |
| GGTACCCA | 0.0936 ± 0.0037 |

| Sequence | PBM E-score of 8-mer |
| --- | --- |
| AAGGGCCG | -0.249 ± 0.02 |
| AACATGCC | -0.165 ± 0.0089 |
| ATTACCAA | -0.0698 ± 0.092 |
| CCGCTACA | 0.0223 ± 0.033 |
| GCAAGTCC | -0.0159 ± 0.0022 |
| GGTGAATA | 0.0919 ± 0.092 |
| AAACAGAC | -0.0406 ± 0.051 |
| ACGGACTA | 0.0169 ± 0.079 |
| CCGTCGCC | 0.155 ± 0.0055 |
| ATCTGATC | -0.118 ± 0.025 |
| CGCTTAAG | 0.0665 ± 0.054 |
| TAACCGAA | -0.15 ± 0.067 |
| AACGTTCA | -0.0811 ± 0.02 |
| ATCAAAAT | -0.163 ± 0.072 |
| GGTAGGAA | -0.264 ± 0.05 |
| CATGCGTA | -0.223 ± 0.034 |
| AGGGCATC | -0.0368 ± 0.049 |
| AATACTAA | -0.0755 ± 0.1 |
| CCAAGAAA | -0.0828 ± 0.058 |
| TGCACGCA | -0.145 ± 0.11 |
| CATCCAGG | 0.0557 ± 0.084 |
| GGAACCAC | -0.236 ± 0.032 |
| AGCGTATA | -0.0901 ± 0.025 |
| AAGCCGGC | -0.18 ± 0.041 |
| ATATACTC | -0.2091 ± 0.0019 |

| Sequence | PBM E-score of 8-mer |
| --- | --- |
| CACTATAA | -0.00267 ± 0.037 |
| AGCAATTG | -0.0524 ± 0.049 |
| ACGCAGCT | 0.109 ± 0.075 |
| CCAAGGTC | -0.114 ± 0.0076 |
| GCGGTCTA | -0.249 ± 0.022 |
| AAATCCGA | 0.017 ± 0.0061 |
| CGTGGTAG | 0.000165 ± 0.019 |
| GTGACCTA | 0.0283 ± 0.1 |
| CGCTGATC | 0.168 ± 0.0063 |
| CCCCATAC | -0.103 ± 0.12 |
| CCTTGTAC | -0.0582 ± 0.036 |
| AGCTCAGG | -0.185 ± 0.027 |
| AGTTTTGG | -0.118 ± 0.033 |
| CCAACGGA | 0.156 ± 0.0032 |
| AACGATCT | -0.0792 ± 0.027 |
| GCTACTCA | 0.00547 ± 0.1 |
| ATACAGGA | -0.191 ± 0.0043 |
| AGCGCACT | -0.0886 ± 0.15 |
| ACCATCGG | -0.0744 ± 0.049 |
| ACCGCGTA | -0.0155 ± 0.049 |
| CTCAACTC | -0.12 ± 0.0054 |
| AGAAACTC | 0.0212 ± 0.015 |
| CCGGTCAC | 0.132 ± 0.061 |
| AGGGACCA | -0.254 ± 0.011 |
| AGTCTACC | -0.0289 ± 0.0029 |

| Sequence | PBM E-score of 8-mer |
| --- | --- |
| ACTGTTAG | 0.217 ± 0.017 |
| GCTCCGCC | -0.243 ± 0.039 |
| ACGTTCGG | 0.0612 ± 0.0037 |
| GCACGAGC | -0.00463 ± 0.02 |
| GCATAGAC | -0.143 ± 0.044 |
| AGAAACAT | -0.156 ± 0.15 |
| AGGACAGC | -0.14 ± 0.0042 |
| GACACCCC | 0.409 ± 0.031 |
| CACTAACC | 0.0973 ± 0.002 |
| ACAAGTGA | 0.277 ± 0.034 |
| CGAAGTGA | 0.364 ± 0.0058 |
| ATGAGCAA | -0.128 ± 0.047 |
| AAGACGAT | -0.107 ± 0.042 |
| GCGTACTA | -0.3074 ± 0.0011 |
| AGCGCGCC | 0.0511 ± 0.005 |
| AAAGGTAC | -0.152 ± 0.021 |
| AATCGATG | -0.119 ± 0.011 |
| ATACTGAG | -0.175 ± 0.018 |
| CATGTCAC | 0.352 ± 0.0093 |
| TCCCCCGA | -0.121 ± 0.078 |
| CCAAAATA | -0.176 ± 0.038 |
| ATGCGAAG | 0.132 ± 0.0083 |
| ATCCGAGG | -0.146 ± 0.011 |
| AGGTTGCA | 0.15 ± 0.061 |
| CAGGCCAG | -0.303 ± 0.09 |

| Sequence | PBM E-score of 8-mer |
| --- | --- |
| CCAGGAGG | -0.103 ± 0.032 |
| GATGGTTA | -0.218 ± 0.064 |
| CAGACAAG | -0.147 ± 0.052 |
| AAATCGAA | 0.0673 ± 0.073 |
| ATTAGAAG | -0.226 ± 0.053 |
| CAACAGAA | -0.116 ± 0.022 |
| CTAAATGC | 0.134 ± 0.022 |
| GGGGGAAA | -0.0991 ± 0.021 |
| AAAGGGAA | -0.145 ± 0.09 |
| AACGAATG | 0.0394 ± 0.045 |
| CAGTATAC | -0.152 ± 0.054 |
| CGGGGTTC | -0.0309 ± 0.0047 |
| CAAATACG | -0.0163 ± 0.046 |
| ATTCAGCA | 0.0671 ± 0.061 |
| CAAAGAGC | -0.117 ± 0.032 |
| GGAGCCCC | -0.215 ± 0.05 |
| CTTTTCAA | 0.00166 ± 0.079 |
| GAAAATAC | 0.149 ± 0.028 |
| CGCCGAGC | 0.126 ± 0.0089 |
| CCTTGTGC | -0.102 ± 0.077 |
| CGTAGACA | 0.121 ± 0.03 |
| TGCCCCAA | -0.0979 ± 0.045 |
